Out of some 39,000 compounds screened, about 220 (0.56%) showed activity. Some of the results follow.
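Also: static incubation at 37 °C against the wild-type strain, values averaged over two biological replicates.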

This assay has as its system Escherichia coli K-12 BW25113. In words: relative growth (OD600 normalised to plate interquartile mean) (fraction); higher = less growth inhibition, active = 0.2 or less. The settings on record: 50 µM; LB; incubation time: overnight (16-24 h).
As to `COc1ccc(CN(C)C[C@@H]2OCCCC[C@@H](C)Oc3ccc(NC(=O)c4ccccc4)cc3C(=O)N([C@H](C)CO)C[C@H]2C)cc1`, the relative growth is inactive: 1.02. The value for `NCC[C@@H]1CC[C@@H](NC(=O)C2CCCCC2)[C@@H](CO)O1` was inactive: 0.97. Under `C[C@H](CO)N1C[C@H](C)[C@H](CN(C)S(C)(=O)=O)Oc2ccc(NS(=O)(=O)c3ccccc3)cc2C1=O` stands inactive: 0.988; under `C[C@@H]1CN([C@H](C)CO)C(=O)c2cc(NC(=O)NC3CCCCC3)ccc2O[C@@H](C)CCCCO[C@@H]1CN(C)C(=O)c1ccncc1`, inactive: 0.987; under `C[C@@H]1CN([C@H](C)CO)S(=O)(=O)c2ccc(C#CC3(O)CCCC3)cc2O[C@@H]1CN(C)C(=O)Cc1cccnc1`, inactive: 1. For `COc1ccc(S(=O)(=O)Nc2cccc3c2O[C@H](CN(C)S(=O)(=O)c2ccc(C)cc2)[C@@H](C)CN([C@H](C)CO)C3=O)cc1`, the relative growth is inactive: 0.987. The value for `C[C@@H]1CN([C@H](C)CO)C(=O)CCCn2nncc2CO[C@@H]1CN(C)S(=O)(=O)c1ccc(-n2cccn2)cc1` was inactive: 1. The value for `COc1ccc(NC(=O)Nc2ccc3c(c2)CC(=O)N([C@@H](C)CO)C[C@H](C)[C@H](CN(C)C(=O)Nc2ccc(C(F)(F)F)cc2)O3)cc1` was inactive: 1.01; that for `C[C@H](CO)N1C[C@H](C)[C@H](CN(C)CC2CCCCC2)OCCCC[C@H](C)Oc2ccc(NC(=O)c3ccccc3)cc2C1=O` was inactive: 0.906; that for `C[C@@H]1CN([C@@H](C)CO)C(=O)c2cccc(N(C)C)c2O[C@@H]1CN(C)S(=O)(=O)c1ccc(Cl)cc1` was inactive: 1.01. Under `C[C@@H]1CCCCO[C@H](CN(C)C(=O)NC2CCCCC2)[C@@H](C)CN([C@H](C)CO)C(=O)c2cc(NC(=O)CCC(F)(F)F)ccc2O1` stands inactive: 0.973; under `Cc1noc(C)c1NC(=O)N(C)C[C@H]1OCCCC[C@H](C)Oc2ccc(NS(=O)(=O)c3ccccc3)cc2C(=O)N([C@H](C)CO)C[C@@H]1C`, inactive: 1.01; under `C[C@@H]1CN([C@H](C)CO)S(=O)(=O)c2ccc(C#Cc3ccccc3F)cc2O[C@@H]1CN(C)C(=O)Cc1ccncc1`, inactive: 1.02. Regarding `COc1ccc(C#Cc2ccc3c(c2)O[C@@H](CN(C)C(=O)CN2CCOCC2)[C@@H](C)CN([C@H](C)CO)S3(=O)=O)cc1`, the relative growth was inactive: 0.997. The value for `C[C@@H]1CCCCO[C@@H](CN(C)C(=O)c2ccncc2)[C@@H](C)CN([C@@H](C)CO)C(=O)c2cc(NC(=O)C3CCCCC3)ccc2O1` was inactive: 1.01. The value for `COc1ccc(NC(=O)N(C)C[C@@H]2Oc3c(NC(=O)c4cnccn4)cccc3C(=O)N([C@@H](C)CO)C[C@H]2C)cc1` was inactive: 0.965; that for `CN1C(=O)c2cc(NC(=O)Nc3cccc(C#N)c3)ccc2OC[C@H]2O[C@@H](CC(=O)Nc3ccc4c(c3)CCC4)CC[C@@H]21` was inactive: 0.984. As to `CO[C@H](CN(C)S(=O)(=O)c1ccc(Cl)cc1)[C@@H](C)CN([C@@H](C)CO)S(=O)(=O)c1cccc(Cl)c1`, the relative growth is inactive: 1.01. Under `C[C@@H]1CN([C@H](C)CO)C(=O)c2cc(NC(=O)CCCN(C)C)ccc2O[C@@H](C)CCCCO[C@H]1CN(C)S(=O)(=O)c1cn(C)cn1` stands inactive: 1.03; under `COc1ccc2c3c([nH]c2c1)[C@H](CO)N(Cc1ccc(cc1)Cl)C[C@]13CN(CCc2ccccc2)C1`, inactive: 0.951. Regarding `C[C@@H]1CN([C@H](C)CO)C(=O)c2cccc(NC(=O)Nc3cccc4ccccc34)c2O[C@H]1CN(C)S(=O)(=O)c1ccc(F)cc1`, the relative growth was inactive: 1.03.

With `CC(C)c1cc(=O)n2nc(N)nc2[nH]1`, the relative growth was inactive: 1.01.

As to `C[C@H](CO)N1C[C@H](C)[C@@H](CN(C)CC2CCOCC2)Oc2cc(Br)ccc2S1(=O)=O`, the relative growth was inactive: 0.977. Under `O=C1N[C@@H](Cc2c[nH]c3ccccc23)COC(=O)[C@@H](Cc2ccc(F)cc2)CC=CC[C@@H]1CC(=O)N(CCO)Cc1ccccc1` stands inactive: 0.995; under `Cc1ccc(S(=O)(=O)N(C)C[C@H]2Oc3c(NC(=O)c4cc(C)nn4C)cccc3C(=O)N([C@H](C)CO)C[C@@H]2C)cc1`, inactive: 0.992; under `C[C@H](CO)N1C[C@H](C)[C@@H](CN(C)Cc2ccc(-c3ccccc3)cc2)Oc2c(NC(=O)C3CCCCC3)cccc2C1=O`, inactive: 1.02. The value for `O=C(NC1CC1)[C@@H]1c2ccccc2C(=O)N(Cc2cc(F)cc(C(F)(F)F)c2)[C@H]1c1ccc(CO)cc1` was inactive: 0.9; that for `CN1CCN(C(=O)C[C@@H]2CC[C@H]3[C@@H](COC[C@@H](O)CN3C(=O)Nc3ccc4c(c3)OCO4)O2)CC1` was inactive: 0.978. The value for `Cc1ccc(S(=O)(=O)Nc2ccc3c(c2)C(=O)N([C@H](C)CO)C[C@@H](C)[C@@H](CN(C)C(=O)Nc2ccc(C(F)(F)F)cc2)O3)cc1` was inactive: 0.914; that for `CCNC(=O)C[C@@H]1CC[C@H]2[C@@H](COC[C@H](O)CN2C(=O)Nc2c(C)noc2C)O1` was inactive: 0.966; that for `C[C@@H]1CN([C@H](C)CO)C(=O)Cc2cc(NS(=O)(=O)c3cn(C)cn3)ccc2O[C@H]1CN(C)C(=O)NC1CCCCC1` was inactive: 1.01. On to `CC(C)(C)NC[C@@]1(CO)SC(N)=NC1=O`, for which the relative growth was inactive: 0.984. The value for `O=C(Cc1ccccn1)NCC[C@H]1CC[C@H](NC(=O)CN2CCOCC2)[C@@H](CO)O1` was inactive: 0.994; that for `CNc1cccc(CN)c1` was inactive: 1; that for `O=C(NO)c1cn(-c2ccc(C[C@H]3C(=O)O[C@@H](Cc4ccccc4)[C@H]4C=C(/C=C/C5CC5)CN43)cc2)nn1` was inactive: 0.966. `C[C@H]1CN([C@@H](C)CO)C(=O)Cc2cc(NC(=O)Nc3cccc4ccccc34)ccc2O[C@H]1CN(C)C(=O)Nc1ccc(C(F)(F)F)cc1`: the relative growth was inactive: 1. The value for `NC(=O)[C@H]1[C@H](C(=O)O)[C@@H]2C=C[C@H]1C2` was inactive: 1.01; that for `O=C1c2ccccc2[C@@]2(Cc3ccccc3N(CC(F)(F)F)C2=O)[C@H](c2ccc(CO)cc2)N1C1CCCCC1` was inactive: 1.01; that for `CCCCCN1CC=C[C@@]23O[C@@H]4C=CCOC(=O)[C@@H]4[C@H]2C(=O)N([C@@H](C)CO)[C@@H]3C1=O` was inactive: 0.968.

Take `C[C@@H]1CN([C@@H](C)CO)C(=O)c2cc(C#CC3(O)CCCC3)cnc2O[C@H]1CN(C)S(=O)(=O)c1cccc(F)c1`: the relative growth is inactive: 1.02. On to `COc1ccc(NC(=O)N(C)C[C@@H]2Oc3c(NS(=O)(=O)c4cn(C)cn4)cccc3C(=O)N([C@H](C)CO)C[C@@H]2C)cc1`, for which the relative growth was inactive: 0.983.

`C[C@@H]1CN([C@@H](C)CO)C(=O)Cc2cc(NS(=O)(=O)c3ccc(F)cc3)ccc2O[C@H]1CN(C)S(=O)(=O)c1cn(C)cn1`: the relative growth was inactive: 0.985.

On to `CC(C)NC(=O)N(C)C[C@H]1Oc2ccc(NC(=O)CCN3CCOCC3)cc2CC(=O)N([C@H](C)CO)C[C@H]1C`, for which the relative growth was inactive: 0.99. Under `COCC(=O)N(C)C[C@@H]1Oc2cc(C#CC(C)(C)O)ccc2S(=O)(=O)N([C@@H](C)CO)C[C@H]1C` stands inactive: 1; under `O=C(CCCCCNC(=O)OCc1ccc(CO[C@@H]2C[C@H](c3ccc(C(F)(F)F)cc3)C=C(C(=O)N3CCCCCCC3)O2)cc1)NO`, inactive: 1.02. The value for `CC[C@H](C)[C@H]1O[C@]2(CC[C@@H]1C)C[C@@H]1C[C@@H](C/C=C(\C)[C@@H](O[C@H]3C[C@H](OC)[C@@H](O[C@H]4C[C@H](OC)[C@@H](O)[C@H](C)O4)[C@H](C)O3)[C@@H](C)/C=C/C=C3\CO[C@@H]4[C@H](O)C(C)=C[C@@H](C(=O)O1)[C@]34O)O2` was inactive: 0.934; that for `NCCNC(=O)Cc1ccc(O)cc1` was inactive: 0.967. The value for `Cc1noc(C)c1CC(=O)N1CCCC[C@@H]1CCOc1cccc(CN(C)Cc2cccc3cccnc23)c1` was inactive: 0.985. For the molecule `[N-]=[N+]=Nc1ccccc1[C@@H]1OC(c2ccc(OCCCO)cc2)=N[C@]1(CCS(=O)(=O)c1ccccc1)C(=O)NCc1ccccc1`, the relative growth was inactive: 1.05. Under `C[C@@H]1CCCCO[C@H](CN(C)Cc2ccc3c(c2)OCO3)[C@H](C)CN([C@H](C)CO)C(=O)c2cc(NS(=O)(=O)c3ccccc3)ccc2O1` stands inactive: 1.02. Turning to `Cn1cnc(S(=O)(=O)N[C@@H]2C=C[C@@H](CC(=O)NCC3CC3)O[C@H]2CO)c1`, the relative growth is inactive: 0.906.

Take `C[C@H]1CN([C@@H](C)CO)C(=O)c2cc(NC(=O)Cn3cnnn3)ccc2O[C@H]1CN(C)S(=O)(=O)c1ccccc1`: the relative growth was inactive: 0.965.

As for `COc1ccc(S(=O)(=O)Nc2ccc3c(c2)C(=O)N([C@H](C)CO)C[C@H](C)[C@@H](CN(C)C(=O)CCC(F)(F)F)OCCCC[C@@H](C)O3)cc1`, the relative growth is inactive: 0.995. The value for `C[C@@H]1CCCCO[C@@H](CN(C)Cc2ccncc2)[C@H](C)CN([C@H](C)CO)C(=O)c2cc(NC(=O)Nc3ccc(C(F)(F)F)cc3)ccc2O1` was inactive: 0.993. The value for `C[C@H]1CN([C@@H](C)CO)C(=O)Cc2cc(NC(=O)c3ccncc3)ccc2O[C@H]1CN(C)Cc1ccc(Oc2ccccc2)cc1` was inactive: 0.99.

In the case of `CCNC(=O)C[C@@H]1C=C[C@@H](NC(=O)C2CC2)[C@@H](CO)O1`, the relative growth is inactive: 0.977. Under `COc1ccc(C#Cc2ccc3c(c2)[C@]2(C(=O)N3)[C@H](C(=O)O)[C@H]3C(=O)O[C@H](c4ccccc4)[C@H](c4ccccc4)N3[C@@H]2c2ccc(O)cc2)cc1` stands inactive: 1.02; under `CO[C@@H]1CN(C)C(=O)c2ccc(NC(=O)Nc3c(C)noc3C)cc2OC[C@@H](C)N(C(=O)Nc2cccc(Cl)c2)C[C@H]1C`, inactive: 0.935.

For the origin of these results see the supplement of paper PMC9446081.
